Assay results as given in patent US20250127918A1 (MIT, published 2025).

B1: PEL-10 (peptide)
peptide: CFNMQQQRRFYEALHDPNLNEEQRNAKIKSIRDD
modifications: added Cys 1 S-arylated with the electrophile of OAC-01 (from 4-bromobenzenesulfonyl fluoride); C-terminal amide
B2: PEL-11 (peptide)
peptide: FNCQQQRRFYEALHDPNLNEEQRNAKIKSIRDD
modifications: Cys 3 S-arylated with the electrophile of OAC-01 (from 4-bromobenzenesulfonyl fluoride); C-terminal amide
B3: PEL-12 (peptide)
peptide: B2 peptide with C3M, N17C
modifications: Cys 17 S-arylated with the electrophile of OAC-01 (from 4-bromobenzenesulfonyl fluoride); C-terminal amide
B4: PEL-13 (peptide)
peptide: B2 peptide with C3M, E21C
modifications: Cys 21 S-arylated with the electrophile of OAC-01 (from 4-bromobenzenesulfonyl fluoride); C-terminal amide
B5: PEL-14 (peptide)
peptide: B2 peptide with C3M, N24C
modifications: Cys 24 S-arylated with the electrophile of OAC-01 (from 4-bromobenzenesulfonyl fluoride); C-terminal amide
B6: PEL-15 (peptide)
peptide: B2 peptide with C3M, R31C
modifications: Cys 31 S-arylated with the electrophile of OAC-01 (from 4-bromobenzenesulfonyl fluoride); C-terminal amide

Molecular target: Trastuzumab
Experiment: cell-based or functional assay

Binder	Heavy chain total conversion (SDS-PAGE; 100 mM HEPES pH8.5)	Heavy chain total conversion (SDS-PAGE; 100 mM phosphate pH7.2)
B1	44%	22%
B2	32%	12%
B3	30%	10%
B4	12%	4%
B5	8%	4%
B6	9%	0%

Residue numbers refer to the chain shown, from its start.
